{
  "source": "PubChem BioAssay AID463173",
  "about": "(ICCB-Longwood Screening Facility, Harvard Medical School, 2010)",
  "note": "Out of some 52,000 compounds screened, about 1,700 (3.3%) were called active. No stated cut-off is given here; in the data, active means survival mostly below about 52% (no sharp cut-off); inactive means mostly above about 56%. The list shows a part of the results.",
  "data": [
    {"test_system": "Wild type", "assay": "S. aureus survival, RN4220 and DeltatarO strains – OD600, teichoic acid synthesis inhibitors, primary screen (AID 463173)", "conditions": "S. aureus RN4220 wild type/DeltatarO growth, OD600, 18 h, stronger effect = lower value, screened at 18.75 µg/mL (by protocol)", "values": [
      {"molecule": "O=C(Cn1c(=O)nc(-c2ccccc2)c2ccccc21)NCc1ccccc1Cl", "survival": "inactive: 73%"},
      {"molecule": "Cc1ccc(N2CCN(C(=O)c3cn(C)c4ccc(S(=O)(=O)N(C)C)cc4c3=O)CC2C)cc1", "note": "(stereo not given)", "survival": "inactive: 131%"},
      {"molecule": "CC(=O)c1ccc(NC(=O)CSc2nc(=O)n(Cc3ccncc3)c3c2CCC3)cc1", "survival": "inactive: 68%"},
      {"molecule": "CC(C)(Oc1ccc(Br)cc1)C(=O)Nc1cc(-c2nc3ccccc3[nH]2)ccc1Cl", "survival": "inactive: 79%"},
      {"molecule": "O=C(CN1N=C(c2ccc(Cl)cc2)CCC1=O)NCCc1ccccc1", "survival": "inactive: 73%"},
      {"molecule": "CCc1c(C)nc2nncn2c1NCc1ccc(Cl)cc1", "survival": "inactive: 87%"},
      {"molecule": "Cc1ccc(NC(=O)Cn2nc(Cc3ccncc3)c3ccccc3c2=O)c(Cl)c1", "survival": "inactive: 85%"},
      {"molecule": "COc1ccccc1CNC(=O)CN1N=C(c2ccccc2)CCC1=O", "survival": "inactive: 134%"},
      {"molecule": "CCOc1ccc(NC(=O)c2oc3ccccc3c2NC(=O)c2ccc(OC)cc2OC)cc1", "survival": "inactive: 68%"},
      {"molecule": "COc1cc(CNCCSc2nnnn2C)cc(Cl)c1OCc1ccccc1", "survival": "inactive: 59%"},
      {"molecule": "COc1ccc(CNC(=O)CS(=O)Cc2nc(-c3cccc(C)c3)oc2C)cc1", "note": "(stereo not given)", "survival": "inactive: 84%"},
      {"molecule": "Fc1ccccc1N1CCN(c2nccn3nc(-c4ccc(Br)cc4)cc23)CC1", "survival": "inactive: 69%"},
      {"molecule": "CCCCN(CC)CCNC(=O)c1cc2c(=O)n(CC)c3ccccc3c2s1", "survival": "inactive: 67%"},
      {"molecule": "CCCCNc1nc2ccccc2c2nc(-c3ccccc3)nn12", "survival": "active: -1%"},
      {"molecule": "CC(CN1CCCCC1)OC(=O)c1ccc2c(c1)OCO2", "note": "(stereo not given)", "survival": "inactive: 104%"},
      {"molecule": "O=C1C2C(C(=O)N1C13CC4CC(CC(C4)C1)C3)C1C=CC2C12CC2", "note": "(stereo not given)", "survival": "inactive: 114%"},
      {"molecule": "Cc1nc(SCCOc2ccccc2F)[nH]c(=O)c1Cc1ccccc1", "survival": "inactive: 86%"},
      {"molecule": "Cc1ccccc1NC(=O)c1oc2c(c1C)-c1nn(Cc3cccc(Cl)c3)cc1CC2", "survival": "inactive: 66%"},
      {"molecule": "Cc1ccc(-n2c(COCC(=O)O)nc3cccnc32)cc1", "survival": "inactive: 82%"},
      {"molecule": "Cc1oc(-c2ccc(Cl)cc2)nc1CN1CCCC(C(=O)NCc2ccccc2)C1", "note": "(stereo not given)", "survival": "inactive: 88%"},
      {"molecule": "Cc1ccc(/C=C(\\C#N)C(=O)Nc2cccc(Br)c2)o1", "survival": "inactive: 83%"},
      {"molecule": "CCN1CCN(C(c2ccccc2Cl)c2c(O)cc(C)n(CCOC)c2=O)CC1", "note": "(stereo not given)", "survival": "inactive: 113%"},
      {"molecule": "CC(C)CNC(=O)c1ccccc1NC(=O)c1ccco1", "survival": "inactive: 112%"},
      {"molecule": "Cc1ccc(Cl)cc1N1CCN(C(=O)c2cc3c(=O)oc4ccccc4c3s2)CC1", "survival": "inactive: 71%"},
      {"molecule": "O=c1[nH]cnc(O)c1Cc1c(O)nc[nH]c1=O", "survival": "inactive: 103%"},
      {"molecule": "Nc1nn(-c2ccccc2)nc1C(=O)OCc1ccccc1", "survival": "inactive: 85%"},
      {"molecule": "CC1CCCN(CCCNC(=O)Cn2ncc3c([nH]c4ccccc43)c2=O)C1", "note": "(stereo not given)", "survival": "inactive: 87%"},
      {"molecule": "Cc1ccccc1OCCn1c(CCNC(=O)C2CCCCC2)nc2ccccc21", "survival": "inactive: 90%"},
      {"molecule": "Cc1nc2ccc(S(=O)(=O)NCC(=O)Nc3ccc(F)cc3F)cc2s1", "survival": "inactive: 128%"},
      {"molecule": "Cc1ccc(S(=O)(=O)N2CCN(Cc3nc4ccc(C)cc4o3)CC2)c(C)c1", "survival": "inactive: 71%"},
      {"molecule": "CCOC(=O)Cc1ccc(NC(=O)N(Cc2ccc(CC)cc2)Cc2cn[nH]c2-c2ccc(OC)cc2)cc1", "survival": "inactive: 76%"},
      {"molecule": "COc1cccc(C(=O)Nc2nc(-c3ccc(Br)cc3)ns2)c1", "survival": "inactive: 84%"},
      {"molecule": "CCOC(=O)c1c(C)[nH]c(C)c1S(=O)(=O)N(C)CC(=O)Nc1ccc(C)cc1Br", "survival": "inactive: 75%"},
      {"molecule": "COCCCNC(=O)CSC1=Nc2ccccc2C2=NC(CCC(=O)NCc3ccc(OC)cc3)C(=O)N12", "note": "(stereo not given)", "survival": "inactive: 73%"},
      {"molecule": "CCc1ccc(OCCn2c(C3CC(=O)N(Cc4ccc(F)cc4)C3)nc3ccccc32)cc1", "note": "(stereo not given)", "survival": "active: -14%"},
      {"molecule": "CC(C)(C)C(=O)Nc1ccccc1C(=O)OCc1cc(=O)n2ccsc2n1", "survival": "inactive: 53%"},
      {"molecule": "CCc1ccccc1-n1nnc(-c2nsc(NC(=O)c3ccc(C)c(C)c3)n2)c1C", "survival": "inactive: 134%"},
      {"molecule": "Cc1ccc(-n2c(SCC(=O)N3CCCc4ccccc43)nc3c([nH]c4ccccc43)c2=O)cc1", "survival": "inactive: 80%"},
      {"molecule": "CCc1ccc(C2=CC(c3c(F)cccc3Cl)n3c(nc4ccccc43)N2)cc1", "note": "(stereo not given)", "survival": "inactive: 82%"},
      {"molecule": "Cc1cc(C)cc(NC(=O)CSc2nc3nccnc3c(=O)n2CCc2c[nH]c3ccccc23)c1", "survival": "inactive: 80%"},
      {"molecule": "Cc1ccc(-c2cn3ccc(C)cc3n2)cc1", "survival": "inactive: 27%"},
      {"molecule": "CC(C)CCn1c(/C=C/c2ccccc2)nc2ccccc21", "survival": "active: -1%"},
      {"molecule": "CCOC(=O)Cn1c(=O)n(C2CCCCC2)c2nc(-c3c(F)cccc3Cl)nc(C(N)=O)c21", "survival": "inactive: 80%"},
      {"molecule": "Cc1cccc(NC(=O)Cn2c(=O)n(CCCCCC(=O)NCc3ccc4c(c3)OCO4)c(=O)c3sccc32)c1", "survival": "inactive: 87%"},
      {"molecule": "O=C(COC(=O)C1CCC(N2C(=O)C3C4C=CC(C4)C3C2=O)CC1)c1ccc(F)cc1", "note": "(stereo not given)", "survival": "inactive: 108%"},
      {"molecule": "COC(=O)c1scc(-c2ccc(C)cc2)c1S(=O)(=O)Nc1cc(C)ccc1OC", "survival": "inactive: 83%"},
      {"molecule": "COc1ccc(Nc2nc(C)nc(N)c2S(=O)(=O)c2ccccc2)cc1", "survival": "inactive: 76%"},
      {"molecule": "O=C(c1ccc2c(c1)N(Cc1ccccc1)C(=O)c1ccccc1S2(=O)=O)N1CCN(Cc2ccccc2)CC1", "survival": "inactive: 89%"},
      {"molecule": "COc1ccccc1C(=O)Nc1sc(Nc2ccccc2)nc1C(N)=O", "survival": "inactive: 146%"},
      {"molecule": "Cc1ccc(NC(=O)c2cnc3sc(N4CCOCC4)nn3c2=O)cc1N(C)C", "survival": "inactive: 82%"},
      {"molecule": "Cc1ccc(C)c(N2CCN(CCCNC(=O)c3ccc4nc(CCc5ccccc5)oc4c3)CC2)c1", "survival": "inactive: 68%"},
      {"molecule": "CCCNC(=O)C1CCC(Cn2c(=O)c3sccc3n(CC(=O)NCc3cccc(OC)c3OC)c2=O)CC1", "note": "(stereo not given)", "survival": "inactive: 133%"},
      {"molecule": "CCOc1ccc(N2CC(NC(=O)C3CCCC3)CC2=O)cc1", "note": "(stereo not given)", "survival": "inactive: 84%"},
      {"molecule": "COc1ccc(OC)c(NS(=O)(=O)c2ccc(N3CCCCS3(=O)=O)cc2)c1", "survival": "inactive: 75%"},
      {"molecule": "Cc1ccc(C(=O)N/C(=C\\c2ccc(Cl)cc2)C(=O)NC2CCCCC2)cc1", "survival": "inactive: 100%"},
      {"molecule": "COc1cccc(N2CC(NC(=O)c3cc(Cl)ccc3OC)CC2=O)c1", "note": "(stereo not given)", "survival": "inactive: 75%"},
      {"molecule": "N#Cc1c(C(F)(F)F)cc(-c2cccs2)nc1SCC(=O)Nc1cccc(Cl)c1", "survival": "inactive: 69%"},
      {"molecule": "COCc1nnc(NC(=O)C2CC(=O)N(c3ccc(C)cc3)C2)s1", "note": "(stereo not given)", "survival": "inactive: 95%"},
      {"molecule": "CC(=O)c1cccc(NC(=O)CN(c2cc(C)cc(C)c2)S(=O)(=O)c2c(C)noc2C)c1", "survival": "inactive: 73%"},
      {"molecule": "COc1ccc(NC(=O)c2ccco2)cc1NC(=O)c1cc(OC)c(OC)c(OC)c1", "survival": "inactive: 94%"},
      {"molecule": "Cc1cc(-n2ccnc(NCCc3ccc(S(N)(=O)=O)cc3)c2=O)ccc1Br", "survival": "inactive: 75%"},
      {"molecule": "COc1ccc(-c2onc(C)c2C)cc1S(=O)(=O)N(C)Cc1ccccc1", "survival": "inactive: 129%"},
      {"molecule": "COc1cc(OC)c(N(C)C(=O)c2c(C)oc3ncn(CC(C)C)c(=O)c23)cc1Cl", "survival": "inactive: 51%"},
      {"molecule": "CCSc1nnc2nc(C)cc(C)n12", "survival": "inactive: 107%"},
      {"molecule": "Cc1c(-c2ccccc2)nc2c(Cl)cccc2c1C(=O)OCC(=O)c1ccc(F)cc1", "survival": "inactive: 92%"},
      {"molecule": "CCOC(=O)CSc1nc2cc3c(cc2c(=O)n1Cc1ccc(C(=O)NCCc2ccc(OC)c(OC)c2)cc1)OCO3", "survival": "inactive: 51%"},
      {"molecule": "Cc1cc(C)c2c(CC(=O)N(Cc3ccc(Cl)cc3)Cc3ccco3)coc2c1", "survival": "inactive: 93%"},
      {"molecule": "O=C(Nc1ccccc1)c1nc[nH]c1C(=O)O", "survival": "inactive: 58%"},
      {"molecule": "CCOc1ccccc1C(=O)N(Cc1sccc1C)C1CCS(=O)(=O)C1", "note": "(stereo not given)", "survival": "inactive: 89%"},
      {"molecule": "COc1ccc(-c2cc(C(F)(F)F)nc(SCC(=O)NCCc3ccccc3)n2)cc1", "survival": "inactive: 140%"},
      {"molecule": "Cc1ccc(NC(=O)Cn2cc(S(=O)(=O)Cc3ccc(F)cc3)c3ccccc32)cc1Cl", "survival": "inactive: 77%"},
      {"molecule": "N#Cc1c(-n2ncnc2-c2ccc(F)cc2)sc2c1CCCCC2", "survival": "active: -2%"},
      {"molecule": "O=C(C1CCN(S(=O)(=O)c2ccc(Br)s2)CC1)N1CCN(c2cccc(C(F)(F)F)c2)CC1", "survival": "inactive: 93%"},
      {"molecule": "O=C(CSCc1cnn(-c2ccccc2)c1-n1cccc1)NCc1cccc(Cl)c1", "survival": "inactive: 91%"},
      {"molecule": "CCCSc1ncc(Cl)c(C(=O)Nc2sc3c(c2C(=O)OC)CCCC3)n1", "survival": "inactive: 84%"},
      {"molecule": "CCC(C)NC(=O)CCC(=O)N1Cc2ccccc2Oc2ncccc21", "note": "(stereo not given)", "survival": "inactive: 121%"},
      {"molecule": "CC1=C(C(=O)N2CCN(c3ccccc3)CC2)C2(CCCCC2)OC1=O", "survival": "inactive: 82%"},
      {"molecule": "COc1cc(NC(=O)Cn2c(=O)ccc3cc(S(=O)(=O)N4CCCC4)ccc32)cc(OC)c1", "survival": "inactive: 74%"},
      {"molecule": "CC(C)(C)NC(=O)c1oc2ccccc2c1NC(=O)c1ccccc1F", "survival": "inactive: 88%"},
      {"molecule": "Cc1ccc(S(=O)(=O)Nc2ccc3nc(-c4ccc(F)cc4)oc3c2)cc1", "survival": "inactive: 24%"},
      {"molecule": "COc1ccc(/C=C\\c2onc(C)c2S(=O)(=O)N2CCC(C(=O)Nc3cccc(OC)c3)CC2)cc1", "survival": "inactive: 121%"},
      {"molecule": "CCOC(=O)c1c(C)[nH]c(C)c1S(=O)(=O)N(C)CC(=O)Nc1ccc(CC)cc1", "survival": "inactive: 99%"},
      {"molecule": "Cc1ccc(-n2nc(C)c(C(=O)O)c2-n2cccc2)cc1", "survival": "inactive: 90%"},
      {"molecule": "Cc1ccc(CNC(=O)c2c(C)oc3ncnc(N4CCOCC4)c23)cc1", "survival": "active: -1%"},
      {"molecule": "COc1ccc(CNC(=O)c2cc3ccccn3n2)cc1OC", "survival": "inactive: 127%"},
      {"molecule": "CCc1ccc(-n2c(=O)c3c4c(sc3n(CC(=O)c3ccc(Br)cc3)c2=O)CCC4)cc1", "survival": "inactive: 125%"},
      {"molecule": "O=C(NCc1ccccc1)c1cc2ccc3cccnc3c2[nH]1", "survival": "inactive: 73%"},
      {"molecule": "CCCc1nc(SCC(=O)N2CCCC2)c2ccccc2n1", "survival": "inactive: 107%"},
      {"molecule": "O=C(CCn1nnc(-c2cccs2)n1)NCc1ccccc1Cl", "survival": "inactive: 112%"},
      {"molecule": "C=CCNc1nnc(Cl)c2ccccc12", "survival": "inactive: 110%"}
    ]}
  ]
}
